{"source": "paper PMC12820563", "note": "This is one part of the list. The list includes weakly bound sequences.", "data": [{"target": "T1, MBP-FoxP3dN (UniProt Q99JB6)", "T1 sequence": "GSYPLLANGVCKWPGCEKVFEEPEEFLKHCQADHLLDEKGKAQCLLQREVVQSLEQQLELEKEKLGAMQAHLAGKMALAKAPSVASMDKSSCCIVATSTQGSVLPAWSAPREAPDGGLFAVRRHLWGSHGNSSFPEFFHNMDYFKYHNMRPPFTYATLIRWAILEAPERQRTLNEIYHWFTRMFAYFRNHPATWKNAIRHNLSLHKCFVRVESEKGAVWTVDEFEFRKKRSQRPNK", "test": "PD-seq (MBP pull-down with sequencing)", "conditions": "20 mM Tris-HCl pH 7.5, 100 mM NaCl, 1.5 mM MgCl2, 0.4 uM protein, 0.1 uM dsDNA library, 30 min, room temperature, amylose pull-down; high values mean tight binding; double strand, one strand shown", "values": [{"sequence": "GATGATTGTTCTCCCAGCTGATGAATTTTTACGTTCGAGTAAACAAATTTTCCTAATCTTTCTGTTCAAGCGCCATCTAC", "binding signal (RPM ratio (pull-down/input))": 0.291}, {"sequence": "GATGATTGTTCTCCCAGCTGATGAATTGGGTTAATCGAGTAAACAAATTTTCCTAATCTTTCTGTTCAAGCGCCATCTAC", "binding signal (RPM ratio (pull-down/input))": 0.292}, {"sequence": "GATGATTGTTCTCCCAGCTGATGAATTATTAGGATCGAGTAAACAAATTTTCCTAATCTTTCTGTTCAAGCGCCATCTAC", "binding signal (RPM ratio (pull-down/input))": 0.396}, {"sequence": "GATGATTGTTCTCCCAGCTGATGAATTTACCCGGTCGAGTAAACAAATTTTCCTAATCTTTCTGTTCAAGCGCCATCTAC", "binding signal (RPM ratio (pull-down/input))": 0.233}, {"sequence": "GATGATTGTTCTCCCAGCTGATGAATTCGCCCGCTCGAGTAAACAAATTTTCCTAATCTTTCTGTTCAAGCGCCATCTAC", "binding signal (RPM ratio (pull-down/input))": 0.335}, {"sequence": "GATGATTGTTCTCCCAGCTGATGAATTATGGGGTTCGAGTAAACAAATTTTCCTAATCTTTCTGTTCAAGCGCCATCTAC", "binding signal (RPM ratio (pull-down/input))": 0.59}, {"sequence": "GATGATTGTTCTCCCAGCTGATGAATTTTAAAAGTCGAGTAAACAAATTTTCCTAATCTTTCTGTTCAAGCGCCATCTAC", "binding signal (RPM ratio (pull-down/input))": 0.174}, {"sequence": "GATGATTGTTCTCCCAGCTGATGAATTCCCGCCGTCGAGTAAACAAATTTTCCTAATCTTTCTGTTCAAGCGCCATCTAC", "binding signal (RPM ratio (pull-down/input))": 0.469}, {"sequence": "GATGATTGTTCTCCCAGCTGATGAATTTGGATGCTCGAGTAAACAAATTTTCCTAATCTTTCTGTTCAAGCGCCATCTAC", "binding signal (RPM ratio (pull-down/input))": 1.17}, {"sequence": "GATGATTGTTCTCCCAGCTGATGAATTCCAACTGTCGAGTAAACAAATTTTCCTAATCTTTCTGTTCAAGCGCCATCTAC", "binding signal (RPM ratio (pull-down/input))": 0.337}, {"sequence": "GATGATTGTTCTCCCAGCTGATGAATTCTGGTCATCGAGTAAACAAATTTTCCTAATCTTTCTGTTCAAGCGCCATCTAC", "binding signal (RPM ratio (pull-down/input))": 0.498}, {"sequence": "GATGATTGTTCTCCCAGCTGATGAATTTGTCTAGTCGAGTAAACAAATTTTCCTAATCTTTCTGTTCAAGCGCCATCTAC", "binding signal (RPM ratio (pull-down/input))": 3.36}, {"sequence": "GATGATTGTTCTCCCAGCTGATGAATTTCCGTGGTCGAGTAAACAAATTTTCCTAATCTTTCTGTTCAAGCGCCATCTAC", "binding signal (RPM ratio (pull-down/input))": 0.282}, {"sequence": "GATGATTGTTCTCCCAGCTGATGAATTTGATTCATCGAGTAAACAAATTTTCCTAATCTTTCTGTTCAAGCGCCATCTAC", "binding signal (RPM ratio (pull-down/input))": 1.07}, {"sequence": "GATGATTGTTCTCCCAGCTGATGAATTCACACGATCGAGTAAACAAATTTTCCTAATCTTTCTGTTCAAGCGCCATCTAC", "binding signal (RPM ratio (pull-down/input))": 0.278}, {"sequence": "GATGATTGTTCTCCCAGCTGATGAATTCACTATATCGAGTAAACAAATTTTCCTAATCTTTCTGTTCAAGCGCCATCTAC", "binding signal (RPM ratio (pull-down/input))": 0.382}, {"sequence": "GATGATTGTTCTCCCAGCTGATGAATTTCCTGTGTCGAGTAAACAAATTTTCCTAATCTTTCTGTTCAAGCGCCATCTAC", "binding signal (RPM ratio (pull-down/input))": 0.352}, {"sequence": "GATGATTGTTCTCCCAGCTGATGAATTCATAGCATCGAGTAAACAAATTTTCCTAATCTTTCTGTTCAAGCGCCATCTAC", "binding signal (RPM ratio (pull-down/input))": 1.06}, {"sequence": "GATGATTGTTCTCCCAGCTGATGAATTGTATAGATCGAGTAAACAAATTTTCCTAATCTTTCTGTTCAAGCGCCATCTAC", "binding signal (RPM ratio (pull-down/input))": 1.24}, {"sequence": "GATGATTGTTCTCCCAGCTGATGAATTTGTATCTTCGAGTAAACAAATTTTCCTAATCTTTCTGTTCAAGCGCCATCTAC", "binding signal (RPM ratio (pull-down/input))": 5.56}, {"sequence": "GATGATTGTTCTCCCAGCTGATGAATTGGTTACGTCGAGTAAACAAATTTTCCTAATCTTTCTGTTCAAGCGCCATCTAC", "binding signal (RPM ratio (pull-down/input))": 0.698}, {"sequence": "GATGATTGTTCTCCCAGCTGATGAATTCATACACTCGAGTAAACAAATTTTCCTAATCTTTCTGTTCAAGCGCCATCTAC", "binding signal (RPM ratio (pull-down/input))": 0.669}, {"sequence": "GATGATTGTTCTCCCAGCTGATGAATTAGCATATTCGAGTAAACAAATTTTCCTAATCTTTCTGTTCAAGCGCCATCTAC", "binding signal (RPM ratio (pull-down/input))": 1.09}, {"sequence": "GATGATTGTTCTCCCAGCTGATGAATTAGGATGGTCGAGTAAACAAATTTTCCTAATCTTTCTGTTCAAGCGCCATCTAC", "binding signal (RPM ratio (pull-down/input))": 0.492}, {"sequence": "GATGATTGTTCTCCCAGCTGATGAATTCACGGACTCGAGTAAACAAATTTTCCTAATCTTTCTGTTCAAGCGCCATCTAC", "binding signal (RPM ratio (pull-down/input))": 0.234}, {"sequence": "GATGATTGTTCTCCCAGCTGATGAATTGGCGATTTCGAGTAAACAAATTTTCCTAATCTTTCTGTTCAAGCGCCATCTAC", "binding signal (RPM ratio (pull-down/input))": 0.595}, {"sequence": "GATGATTGTTCTCCCAGCTGATGAATTGATCACATCGAGTAAACAAATTTTCCTAATCTTTCTGTTCAAGCGCCATCTAC", "binding signal (RPM ratio (pull-down/input))": 0.76}, {"sequence": "GATGATTGTTCTCCCAGCTGATGAATTACACCTGTCGAGTAAACAAATTTTCCTAATCTTTCTGTTCAAGCGCCATCTAC", "binding signal (RPM ratio (pull-down/input))": 0.561}, {"sequence": "GATGATTGTTCTCCCAGCTGATGAATTACCATTCTCGAGTAAACAAATTTTCCTAATCTTTCTGTTCAAGCGCCATCTAC", "binding signal (RPM ratio (pull-down/input))": 0.496}, {"sequence": "GATGATTGTTCTCCCAGCTGATGAATTGCGTGTCTCGAGTAAACAAATTTTCCTAATCTTTCTGTTCAAGCGCCATCTAC", "binding signal (RPM ratio (pull-down/input))": 2.08}, {"sequence": "GATGATTGTTCTCCCAGCTGATGAATTCACTTCGTCGAGTAAACAAATTTTCCTAATCTTTCTGTTCAAGCGCCATCTAC", "binding signal (RPM ratio (pull-down/input))": 0.349}, {"sequence": "GATGATTGTTCTCCCAGCTGATGAATTTCAACAGTCGAGTAAACAAATTTTCCTAATCTTTCTGTTCAAGCGCCATCTAC", "binding signal (RPM ratio (pull-down/input))": 0.3}, {"sequence": "GATGATTGTTCTCCCAGCTGATGAATTTTTGAGATCGAGTAAACAAATTTTCCTAATCTTTCTGTTCAAGCGCCATCTAC", "binding signal (RPM ratio (pull-down/input))": 0.234}, {"sequence": "GATGATTGTTCTCCCAGCTGATGAATTTTTTCGCTCGAGTAAACAAATTTTCCTAATCTTTCTGTTCAAGCGCCATCTAC", "binding signal (RPM ratio (pull-down/input))": 0.212}, {"sequence": "GATGATTGTTCTCCCAGCTGATGAATTCGATGCATCGAGTAAACAAATTTTCCTAATCTTTCTGTTCAAGCGCCATCTAC", "binding signal (RPM ratio (pull-down/input))": 1.84}, {"sequence": "GATGATTGTTCTCCCAGCTGATGAATTGGGTTTCTCGAGTAAACAAATTTTCCTAATCTTTCTGTTCAAGCGCCATCTAC", "binding signal (RPM ratio (pull-down/input))": 0.917}, {"sequence": "GATGATTGTTCTCCCAGCTGATGAATTTAGGGGATCGAGTAAACAAATTTTCCTAATCTTTCTGTTCAAGCGCCATCTAC", "binding signal (RPM ratio (pull-down/input))": 0.414}, {"sequence": "GATGATTGTTCTCCCAGCTGATGAATTTGCGTGTTCGAGTAAACAAATTTTCCTAATCTTTCTGTTCAAGCGCCATCTAC", "binding signal (RPM ratio (pull-down/input))": 3.79}, {"sequence": "GATGATTGTTCTCCCAGCTGATGAATTTCGCTGATCGAGTAAACAAATTTTCCTAATCTTTCTGTTCAAGCGCCATCTAC", "binding signal (RPM ratio (pull-down/input))": 0.541}, {"sequence": "GATGATTGTTCTCCCAGCTGATGAATTTCTCTGATCGAGTAAACAAATTTTCCTAATCTTTCTGTTCAAGCGCCATCTAC", "binding signal (RPM ratio (pull-down/input))": 0.198}]}]}
